Measurements reported in the supplement of paper PMC8728848.
Some of the results follow.

How the values were obtained:
Assay in all cases: glycan array binding signal (z-score within array); higher = stronger binding
Details in all cases: glycan notation: IUPAC condensed, linker removed
[1] = target: GlcNAc6S(b1-3)Gal(b1-4)GlcNAc
Summary of the method: (§1)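 From the Consortium for Functional Glycomics database, 3228 arrays were curated, keeping only those whose protein sequence was available. Binding is given as a within-array Z-score averaged across arrays sharing a protein sequence and across linkers. Negative Z-scores can be read as non-binding.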

[2] = target: Kdn(a2-3)Gal(b1-3)GalNAc
Summary of the method: as §1

[3] = target: Kdn(a2-3)Gal(b1-3)GlcNAc
Summary of the method: as §1

[4] = target: Kdn(a2-3)Gal(b1-4)Glc
Summary of the method: as §1

[5] = target: Kdn(a2-3)Gal(b1-4)GlcNAc
Summary of the method: as §1

[6] = target: Kdn(a2-3)Gal(b1-4)[Fuc(a1-3)]GlcNAc
Summary of the method: as §1

[7] = target: Kdn(a2-6)Gal(b1-4)GlcNAc
Summary of the method: as §1

[8] = target: Man(a1-2)Man(a1-2)Man(a1-3)Man
Summary of the method: as §1

[9] = target: Man(a1-2)Man(a1-2)Man(a1-3)[Man(a1-2)Man(a1-3)[Man(a1-2)Man(a1-6)]Man(a1-6)]Man(b1-4)GlcNAc(b1-4)GlcNAc
Summary of the method: as §1

[10] = target: Man(a1-2)Man(a1-2)Man(a1-3)[Man(a1-2)Man(a1-6)[Man(a1-3)]Man(a1-6)]Man(b1-4)GlcNAc(b1-4)GlcNAc
Summary of the method: as §1

[11] = target: Man(a1-2)Man(a1-2)Man(a1-6)[Man(a1-3)]Man
Summary of the method: as §1

[12] = target: Man(a1-2)Man(a1-3)Man
Summary of the method: as §1

[13] = target: Man(a1-2)Man(a1-3)[Man(a1-2)Man(a1-6)]Man
Summary of the method: as §1

[14] = target: Man(a1-2)Man(a1-3)[Man(a1-2)Man(a1-6)]Man(a1-6)[Man(a1-2)Man(a1-2)Man(a1-3)]Man
Summary of the method: as §1

[15] = target: Man(a1-2)Man(a1-3)[Man(a1-2)Man(a1-6)]Man(a1-6)[Man(a1-2)Man(a1-2)Man(a1-3)]Man(b1-4)GlcNAc(b1-4)GlcNAc
Summary of the method: as §1

[16] = target: Man(a1-2)Man(a1-3)[Man(a1-3)[Man(a1-6)]Man(a1-6)]Man(b1-4)GlcNAc(b1-4)GlcNAc
Summary of the method: as §1

[17] = target: Man(a1-2)Man(a1-3)[Man(a1-6)]Man(a1-6)[Man(a1-2)Man(a1-3)]Man(b1-4)GlcNAc(b1-4)GlcNAc
Summary of the method: as §1

[18] = target: Man(a1-2)Man(a1-6)[Man(a1-3)]Man(a1-6)[Man(a1-2)Man(a1-2)Man(a1-3)]Man
Summary of the method: as §1

[19] = target: Man(a1-2)Man(a1-6)[Man(a1-3)]Man(a1-6)[Man(a1-2)Man(a1-2)Man(a1-3)]Man(b1-4)GlcNAc(b1-4)GlcNAc
Summary of the method: as §1

[20] = target: Man(a1-3)[Man(a1-6)]Man
Summary of the method: as §1

[21] = target: Man(a1-3)[Man(a1-6)]Man(a1-6)[Man(a1-2)Man(a1-3)]Man(b1-4)GlcNAc(b1-4)GlcNAc
Summary of the method: as §1

[22] = target: Man(a1-3)[Man(a1-6)]Man(a1-6)[Man(a1-3)]Man
Summary of the method: as §1

[23] = target: Man(a1-3)[Man(a1-6)]Man(a1-6)[Man(a1-3)]Man(b1-4)GlcNAc(b1-4)GlcNAc
Summary of the method: as §1

[24] = target: Man(a1-3)[Man(a1-6)]Man(b1-4)GlcNAc(b1-4)GlcNAc
Summary of the method: as §1

[25] = target: Man(a1-3)[Man(a1-6)]Man(b1-4)GlcNAc(b1-4)[Fuc(a1-6)]GlcNAc
Summary of the method: as §1

[26] = target: Man(a1-6)Man
Summary of the method: as §1

[27] = target: Man(b1-4)GlcNAc
Summary of the method: as §1

[28] = target: MurNAc(b1-4)GlcNAc
Summary of the method: as §1

[29] = target: Neu5Ac(a2-3)Gal
Summary of the method: as §1

[30] = target: Neu5Ac(a2-3)Gal(b1-3)GalNAc
Summary of the method: as §1

[31] = target: Neu5Ac(a2-3)Gal(b1-3)GalNAc(b1-3)Gal(a1-4)Gal(b1-4)Glc
Summary of the method: as §1

[32] = target: Neu5Ac(a2-3)Gal(b1-3)GalNAc(b1-4)[Neu5Ac(a2-3)]Gal(b1-4)Glc
Summary of the method: as §1

[33] = target: Neu5Ac(a2-3)Gal(b1-3)GalNAc(b1-4)[Neu5Ac(a2-8)Neu5Ac(a2-3)]Gal(b1-4)Glc
Summary of the method: as §1

[34] = target: Neu5Ac(a2-3)Gal(b1-3)GalNAc6S
Summary of the method: as §1

[35] = target: Neu5Ac(a2-3)Gal(b1-3)GlcNAc
Summary of the method: as §1

[36] = target: Neu5Ac(a2-3)Gal(b1-3)GlcNAc(b1-2)Man
Summary of the method: as §1

[37] = target: Neu5Ac(a2-3)Gal(b1-3)GlcNAc(b1-2)Man(a1-3)[GlcNAc(b1-4)][Neu5Ac(a2-3)Gal(b1-3)GlcNAc(b1-2)Man(a1-6)]Man(b1-4)GlcNAc(b1-4)GlcNAc
Summary of the method: as §1

[38] = target: Neu5Ac(a2-3)Gal(b1-3)GlcNAc(b1-2)Man(a1-3)[Neu5Ac(a2-3)Gal(b1-3)GlcNAc(b1-2)Man(a1-6)]Man(b1-4)GlcNAc(b1-4)GlcNAc
Summary of the method: as §1

[39] = target: Neu5Ac(a2-3)Gal(b1-3)GlcNAc(b1-3)Gal(b1-3)GlcNAc
Summary of the method: as §1

[40] = target: Neu5Ac(a2-3)Gal(b1-3)GlcNAc(b1-3)Gal(b1-4)GlcNAc
Summary of the method: as §1

[41] = target: Neu5Ac(a2-3)Gal(b1-3)GlcNAc(b1-3)GalNAc
Summary of the method: as §1

[42] = target: Neu5Ac(a2-3)Gal(b1-3)GlcNAc(b1-4)Gal(b1-4)Glc
Summary of the method: as §1

B1: Nictaba (Nicotiana tabacum), Q94EW1 (protein)
chain: MQGQWIAARDLSITWVDNPQYWTWKTVDPNIEVAELRRVAWLDIYGKIETKNLIRKTSYAVYLVFKLTDNPRELERATASLRFVNEVAEGAGIEGTTVFISKKKKLPGELGRFPHLRSDGWLEIKLGEFFNNLGEDGEVEMRLMEINDKTWKSGIIVKGFDIRPN
- glycan array binding signal (z-score) [1]: -0.297
- glycan array binding signal (z-score) [2]: -0.293
- glycan array binding signal (z-score) [3]: -0.283
- glycan array binding signal (z-score) [4]: -0.244
- glycan array binding signal (z-score) [5]: -0.13
- glycan array binding signal (z-score) [6]: -0.283
- glycan array binding signal (z-score) [7]: -0.261
- glycan array binding signal (z-score) [8]: -0.29
- glycan array binding signal (z-score) [9]: 3.93
- glycan array binding signal (z-score) [10]: 4
- glycan array binding signal (z-score) [11]: -0.323
- glycan array binding signal (z-score) [12]: -0.308
- glycan array binding signal (z-score) [13]: -0.268
- glycan array binding signal (z-score) [14]: -0.275
- glycan array binding signal (z-score) [15]: 2.14
- glycan array binding signal (z-score) [16]: 4.38
- glycan array binding signal (z-score) [17]: 4.07
- glycan array binding signal (z-score) [18]: -0.321
- glycan array binding signal (z-score) [19]: 4.83
- glycan array binding signal (z-score) [20]: -0.279
- glycan array binding signal (z-score) [21]: 6.51
- glycan array binding signal (z-score) [22]: -0.261
- glycan array binding signal (z-score) [23]: 4.21
- glycan array binding signal (z-score) [24]: 3.44
- glycan array binding signal (z-score) [25]: 2.71
- glycan array binding signal (z-score) [26]: -0.252
- glycan array binding signal (z-score) [27]: -0.277
- glycan array binding signal (z-score) [28]: -0.388
- glycan array binding signal (z-score) [29]: -0.261
- glycan array binding signal (z-score) [30]: -0.288
- glycan array binding signal (z-score) [31]: -0.219
- glycan array binding signal (z-score) [32]: -0.234
- glycan array binding signal (z-score) [33]: -0.222
- glycan array binding signal (z-score) [34]: -0.281
- glycan array binding signal (z-score) [35]: -0.251
- glycan array binding signal (z-score) [36]: -0.197
- glycan array binding signal (z-score) [37]: -0.379
- glycan array binding signal (z-score) [38]: -0.294
- glycan array binding signal (z-score) [39]: -0.225
- glycan array binding signal (z-score) [40]: -0.267
- glycan array binding signal (z-score) [41]: -0.295
- glycan array binding signal (z-score) [42]: -0.387
